Measurements as given in the supplement of paper PMC3334620.
Whole data set: some 33,000 sequences, median “E-score (-0.5 to 0.5)” near -0.032, cut for the highest 2% near 0.36. This is one part of the list.

Target: T1, Sko1 (UniProt Q02100)
T1 sequence: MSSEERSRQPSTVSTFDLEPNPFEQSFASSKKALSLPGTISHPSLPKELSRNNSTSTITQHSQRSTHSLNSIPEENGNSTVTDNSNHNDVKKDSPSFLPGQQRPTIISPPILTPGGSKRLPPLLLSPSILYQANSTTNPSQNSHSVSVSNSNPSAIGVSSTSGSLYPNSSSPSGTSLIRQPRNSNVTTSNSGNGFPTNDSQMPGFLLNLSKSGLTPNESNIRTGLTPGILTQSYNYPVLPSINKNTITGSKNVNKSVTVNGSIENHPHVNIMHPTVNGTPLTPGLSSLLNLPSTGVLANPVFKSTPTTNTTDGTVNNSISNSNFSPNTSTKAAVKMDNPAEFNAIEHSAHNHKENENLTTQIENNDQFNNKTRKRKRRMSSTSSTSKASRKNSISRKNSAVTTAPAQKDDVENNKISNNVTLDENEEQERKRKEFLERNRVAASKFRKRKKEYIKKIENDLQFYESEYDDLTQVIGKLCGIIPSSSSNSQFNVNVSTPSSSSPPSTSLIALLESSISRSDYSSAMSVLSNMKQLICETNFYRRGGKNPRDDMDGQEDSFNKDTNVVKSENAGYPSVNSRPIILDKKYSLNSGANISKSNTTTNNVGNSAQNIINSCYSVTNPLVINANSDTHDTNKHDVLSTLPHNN
Assay: PBM E-score (8-mer binding enrichment) (E-score (-0.5 to 0.5)); higher = stronger / more preferred TF binding; most listed sequences are background and not binding sites
Conditions: protein concentration: 200 nM; construct: GST-full length
Outline: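 Universal all-10-mer Agilent arrays, double-stranded by primer extension on fresh or once-stripped slides, were probed with about 100-200 nM GST-tagged yeast transcription factors made by PURExpress. Fluorescent anti-GST detected bound protein, and masliner normalised the scans. E-scores from the Universal PBM Analysis Suite were given to each ungapped eight-base word pooled with its reverse complement.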

| Sequence | PBM E-score |
| --- | --- |
| AGGCACTG | -0.113 |
| CGAAGACA | -0.164 |
| CCTGCAAG | -0.318 |
| GCAAATTA | 0.095 |
| CCACTGGC | -0.234 |
| AACGCGCT | -0.0383 |
| AAGTTGCC | -0.122 |
| AAGGCTCA | -0.0238 |
| ATGGCCCG | -0.194 |
| CATTCGTA | 0.317 |
| AGGGGTCA | -0.172 |
| TACTCTAA | 0.123 |
| ACATCATG | 0.393 |
| GCTGACAC | -0.053 |
| CAGGCGAA | -0.0601 |
| AGCGGGGG | -0.329 |
| AATAGTAA | 0.0315 |
| ATGTTGGC | -0.0291 |
| AAGTGACC | -0.141 |
| CGAAGGCA | -0.106 |
| CTCTTGGC | -0.206 |
| CGCGTCAC | 0.41 |

| Sequence | PBM E-score |
| --- | --- |
| CCTTTGAC | -0.0504 |
| CCAACTTA | 0.0529 |
| GAAGCTGC | -0.153 |
| ATTTCAGG | 0.0375 |
| GCCATTGA | 0.0343 |
| AAGACTAA | 0.0405 |
| AATGTGAG | 0.0989 |
| GTTTAAAA | 0.177 |
| ATGTCACA | 0.324 |
| TGATGGAA | 0.202 |
| AGAATGCG | -0.0346 |
| AGCAGCCG | -0.0558 |
| ATCTCGCA | 0.124 |
| TCAGCCAA | -0.0544 |
| CGACTGCC | -0.211 |
| ATTAAACG | 0.315 |
| GACCTTCA | 0.0344 |
| ACAGCTCG | -0.153 |
| CTAGTAAA | 0.14 |
| ACAGGCGA | -0.266 |
| ACGAAAAC | 0.284 |
| CTGGCTTC | -0.277 |

| Sequence | PBM E-score |
| --- | --- |
| CTATCGTC | 0.0728 |
| ATCCCAAC | 0.0739 |
| CAAAACTG | 0.0652 |
| AAAGTCGT | 0.0966 |
| AAGCGGCT | -0.163 |
| AAGGACGT | 0.324 |
| TATGGGGA | -0.119 |
| ACATGCCG | 0.191 |
| ATCATAGA | 0.205 |
| TAGCGCTA | 0.0252 |
| ATCGGTAC | 0.0971 |
| AATCGAGC | -0.0289 |
| CTGACGGA | 0.0532 |
| ACACCAAG | -0.0382 |
| CCAAGGGA | -0.279 |
| AACTTCTG | -0.0671 |
| CCGCGTAC | 0.242 |
| ACCGACGC | 0.0727 |
| CCTTCACA | -0.127 |
| CACGGCGA | -0.139 |
| ACTACTCC | -0.143 |
| GATGTATA | 0.261 |

| Sequence | PBM E-score |
| --- | --- |
| TCCTGGAA | -0.192 |
| CCCACACC | -0.06 |
| GGTGTTCA | 0.0658 |
| AGGTGACC | -0.0978 |
| AGCAGCAT | -0.127 |
| CGAGCTGA | -0.0283 |
| ACTTTTGC | 0.185 |
| GTACCTAC | -0.0089 |
| CTCACCGA | -0.169 |
| ACCTGTTA | 0.0688 |
| AGACTAGC | -0.205 |
| CTAGCGTA | -0.0283 |
| AAGTTGCT | 0.0888 |
| CGCACTGA | 0.0222 |
| ACAGGACA | -0.0397 |
| GCTAAGGA | -0.231 |
| ACCCGCCG | 0.0253 |
| TACGAATA | 0.383 |
| CGACAGCG | -0.102 |
| GGACACTA | -0.125 |
